Reference: paper PMC4336329 (PLoS ONE, 2015)
Out of some 310,000 compounds screened, about 14,000 (4.5%) showed an effect of 50% or more. The effect is printed as a negative number. The list shows a part of the results.

These compounds were tested against human ether-à-go-go-related gene (hERG) potassium channel (human, UniProt Q12809) (assay: primary screen, population patch clamp on CHO cells stably expressing hERG).
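Further: peak tail current of the secondary pulse compared with the same well before compound.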

Chain of human ether-à-go-go-related gene (hERG) potassium channel (Q12809 whole entry, looked up): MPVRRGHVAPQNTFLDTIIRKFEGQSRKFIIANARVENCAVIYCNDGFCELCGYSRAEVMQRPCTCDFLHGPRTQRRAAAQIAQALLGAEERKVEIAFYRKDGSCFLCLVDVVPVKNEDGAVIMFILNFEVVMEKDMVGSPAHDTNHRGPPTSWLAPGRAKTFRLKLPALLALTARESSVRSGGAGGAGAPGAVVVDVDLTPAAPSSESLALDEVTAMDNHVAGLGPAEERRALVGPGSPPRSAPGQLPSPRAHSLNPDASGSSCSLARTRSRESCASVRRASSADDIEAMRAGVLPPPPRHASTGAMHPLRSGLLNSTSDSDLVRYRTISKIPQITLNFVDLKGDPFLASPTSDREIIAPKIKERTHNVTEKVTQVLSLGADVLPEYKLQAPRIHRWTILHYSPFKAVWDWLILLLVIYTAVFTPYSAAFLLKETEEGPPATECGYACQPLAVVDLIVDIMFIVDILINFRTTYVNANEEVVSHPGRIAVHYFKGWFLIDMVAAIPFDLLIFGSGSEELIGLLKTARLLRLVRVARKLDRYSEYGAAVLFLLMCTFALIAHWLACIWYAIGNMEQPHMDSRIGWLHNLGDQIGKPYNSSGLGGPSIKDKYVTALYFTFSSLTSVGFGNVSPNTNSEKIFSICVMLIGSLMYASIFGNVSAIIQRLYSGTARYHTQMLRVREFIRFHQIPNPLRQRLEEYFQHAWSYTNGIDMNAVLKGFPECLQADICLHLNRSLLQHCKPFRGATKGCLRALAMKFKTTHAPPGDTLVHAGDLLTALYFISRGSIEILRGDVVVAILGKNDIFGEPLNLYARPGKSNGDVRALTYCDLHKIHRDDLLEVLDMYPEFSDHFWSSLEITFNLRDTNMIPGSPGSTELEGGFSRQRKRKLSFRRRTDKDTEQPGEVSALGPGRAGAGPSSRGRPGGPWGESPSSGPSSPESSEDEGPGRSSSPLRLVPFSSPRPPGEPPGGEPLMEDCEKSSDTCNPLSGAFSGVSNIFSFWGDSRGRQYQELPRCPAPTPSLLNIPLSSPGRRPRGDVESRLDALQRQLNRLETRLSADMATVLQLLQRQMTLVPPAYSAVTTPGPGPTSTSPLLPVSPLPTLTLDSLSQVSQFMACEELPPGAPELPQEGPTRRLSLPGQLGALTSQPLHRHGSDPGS

SMILES | hERG current change (%, negative = inhibition) at 10uM [%]
COc1ccc(CCNC(=O)CSCc2ccc([N+](=O)[O-])cc2)cc1 | -44.8
Cn1cccc1Cc1nnc(SCC(=O)Nc2ccccc2F)n1CCc1ccccc1 | -29.7
O=C(Nc1ccc(Cl)c(Cl)c1)Nc1ccon1 | 23.8
CCN(CC(=O)c1c(N)n(C)c(=O)n(C)c1=O)c1cccc2ccccc12 | 3.07
O=C(Nc1ccc(F)cc1F)C1CCCN1S(=O)(=O)c1cccc2nsnc12 (stereo not drawn) | -15.8
CC1=NN(C(=O)CCc2ccccc2)C(c2ccccc2)C1 (stereo not drawn) | -5.19
CCCNC(=O)N1CCN(S(C)(=O)=O)CC1 | 4.94
CCOC(=O)c1sc(=S)n(CC)c1NC(=O)c1ccccc1 | 8.71
CC(C)COC(=O)Nc1ccccc1C(=O)N1CCOCC1 | 9.75
COc1ccccc1OCC(=O)n1cc(C(=O)c2cc(Cl)cc(Cl)c2O)cn1 | 13.1
CC(C)n1c(SCC(=O)N2CCCC2)nc2c1c(=O)n(C)c(=O)n2C | -5.03
CCOc1cc(-c2nnn(CC(=O)N3CCCCC3)n2)ccc1OC | 25.5
CCCS(=O)(=O)N1CCCC(C(=O)NCCN2CCCCC2C)C1 (stereo not drawn) | 7.72
COc1cc2ccccc2cc1C(=O)Nc1ccncc1 | -24.8
Cc1cc(C)cc(COn2ccnc2)c1 | -14.1
CCC(C)NC(=O)C(NS(=O)(=O)c1cccc2nsnc12)c1ccccc1 (stereo not drawn) | 5.97
CN(C)C(=O)Nc1ccccc1 | 13.6
O=C1NC(=O)/C(=C/c2ccccc2Oc2ccc(Cl)cc2)S1 | 0.787
COc1cccc(CC(=O)OCC(=O)NCC(=O)Nc2cccc(C)c2C)c1 | 15.6
NC(=O)c1cc(NC(=O)CCCc2nc3ccccc3s2)cc(C(N)=O)c1 | 20.3
CCC(CC)c1nnc(NC(=O)C2CCN(C(=O)c3ccco3)CC2)s1 | 20.1
Cc1cc(CN(C)C(=O)c2cc(COc3ccc(F)cc3Cl)on2)n[nH]1 | -2.22
Nc1nc(NCc2ccco2)nc(NC2CCCCC2)c1[N+](=O)[O-] | 8.97

SMILES | hERG current change (%, negative = inhibition) at 10uM [%]
Cc1ccsc1C(=O)N/N=C/c1ccc([N+](=O)[O-])cc1 | 11.2
COc1ccc(C(C)=O)cc1CSc1ccc(S(=O)(=O)N2CCOCC2)cn1 | -24.8
CCc1ccc(NC(=O)CSc2ccc(-c3sc(C)nc3C)nn2)cc1 | 7.98
O=C(c1ccc(-c2ccccc2)cc1)C1CCCN(C(=O)c2ccncc2)C1 (stereo not drawn) | -13.4
Cc1ccc(C)c(NC(=O)Cc2coc3cc4c(cc23)CCC4)c1 | 14.4
CCCOC(=O)c1ccc(NC(=O)c2cc(=O)[nH]c3ccccc23)cc1 | -6.74
CCOc1ccc(OC(=O)NC(c2ccccc2)C(Cl)(Cl)Cl)cc1 (stereo not drawn) | -4.18
Cc1ccc(Sc2ncnc(N)c2[N+](=O)[O-])cc1 | 11
COc1cccc(NC(=O)N2CCCC2C(=O)NC23CC4CC(CC(C4)C2)C3)c1 (stereo not drawn) | 9.5
CC1(C)C(=O)OC(c2cccc([N+](=O)[O-])c2)C2(CCCCC2)C1=O (stereo not drawn) | 6.37
CS/C(N)=N/C(=S)Nc1cccc(Cl)c1 | -0.719
O=C(NCc1ccco1)/C(=C/C=C/c1ccccc1)NC(=O)c1ccco1 | -36.4
Cn1cnnc1SCC(=O)NNC(=O)c1ccc(Cl)cc1 | 12.6
CN1C2CCC1CC(NC(=O)c1cc(S(=O)(=O)N(C)C)c(Cl)cc1Cl)C2 (stereo not drawn) | -7.53
O=C(CC(C(=O)O)c1ccc(Cl)cc1)c1ccc(Br)cc1 (stereo not drawn) | 9.1
Cc1cc(C)c2cc(C#N)c(N3CCCN(C(=O)c4cnccn4)CC3)nc2c1 | -4.24
CC(NC(=O)COc1cccc(Br)c1)C(=O)O (stereo not drawn) | 1.61
CN1C(=O)NC(=O)C2(Cc3ccccc3N3CCOCC32)C1=O (stereo not drawn) | 22.3
O=C1/C(=C/c2ccccn2)SC(=S)N1c1ccc(O)cc1 | 3.54
COC(=O)C1=C(N)N(c2ccc(F)cc2)C2=C(C(=O)CCC2)C1c1ccc2c(c1)OCO2 (stereo not drawn) | -5.13
CCCn1c(SCC(N)=O)nc2c(c1=O)C1(CCCC1)Cc1ccccc1-2 | -16.3
COc1ccc(CC(=O)Nc2c(C(=O)N3CCN(c4ccccc4OC)CC3)oc3ccccc23)cc1OC | -24.4
O=C(CSc1n[nH]c(=O)[nH]c1=O)Nc1cccc(S(=O)(=O)N2CCOCC2)c1 | 32.6

SMILES | hERG current change (%, negative = inhibition) at 10uM [%]
COc1ccc(NC(=O)c2cc(C)n(Cc3cccs3)c2C)cc1 | 10.1
Cc1ccc(C)c2c1cc(C)c1nnc(SCc3ccccn3)n12 | 5.05
O=S(=O)(c1cccc(F)c1)N1CCN(C(=S)NCc2ccccc2)CC1 | -0.89
COc1cc(NC2c3ncccc3C(=O)N2Cc2ccco2)cc(OC)c1OC (stereo not drawn) | 4.45
CC(C)Cn1c(CN2C(=O)c3ccccc3C2=O)nc2ccccc2c1=O | 16.7
O=C(OC(C(=O)NCc1ccccc1)c1ccccc1)c1ccco1 (stereo not drawn) | 2.93
COc1ccc(C(=O)NC2CCN(S(=O)(=O)c3ccccc3F)CC2)cc1 | 18.1
CC(=O)Nc1nonc1-c1nc2ccccc2n1CCC(C)C | -11
CN(C)C(CNC(=O)CCS(=O)(=O)c1ccccc1)c1ccccc1 (stereo not drawn) | 17.6
O=C(CC(NC(=O)c1ccccc1)c1ccccc1)Nc1ccc(F)c(F)c1 (stereo not drawn) | 25.8
Cc1cc(C)n(CC(=O)O)c(=O)c1[N+](=O)[O-] | 6
COc1ccccc1Cn1cccc1C=O | 15.7
CC(Oc1cccc(Cl)c1)C(=O)N1CCCN(C)CC1 (stereo not drawn) | -2.56
COc1ccc(NC(=O)CN2CCc3ccccc3C2)c(OC)c1 | -6.9
Cc1ccc(CNS(=O)(=O)NCc2ccccc2)cc1 | 12.4
O=C(CSc1ccccc1C(=O)NCc1ccccc1)NC12CC3CC(CC(C3)C1)C2 | -15.1
O=C(CN1CCOCC1)Nc1cccc([N+](=O)[O-])c1 | 7.21
COc1ccc(-c2nnn(CC(=O)N(Cc3ccccc3Cl)C(C(=O)NCC3CCCO3)c3ccco3)n2)cc1 (stereo not drawn) | -2.07
COCCCNc1nc2c(-c3ccc(C)cc3)nnn2c2ccccc12 | 12.9
CC(C)CN(C(=O)c1ccc(=O)n(C)n1)c1nc2ccccc2s1 | -6.96
COC(=O)CC(=O)CSc1nc2c(cc1C#N)CCCCC2 | 1.95
CN1CCc2c(sc(NC(=O)c3ccc(S(=O)(=O)N4CCc5ccccc54)cc3)c2C(N)=O)C1.Cl | 7.03
COc1ccc(NS(=O)(=O)c2ccc(OC)c(N(C)S(=O)(=O)c3ccc(Cl)cc3)c2)cc1 | -16.9

SMILES | hERG current change (%, negative = inhibition) at 10uM [%]
O=C(O)CCC(NC(=O)c1cncc(O)c1)C(=O)O (stereo not drawn) | -4.94
COc1ccc2c(c1OC)C(=O)N(c1ccccc1)C2=O | 10.4
COc1ccc(-c2nnc3cccc(Cl)n23)c(OC)c1 | 17.7
N#CCN1CCCC(C(N)=O)C1 (stereo not drawn) | 0.891
CCOCCCNCc1ccc(OCc2ccccc2C)c(OC)c1.Cl | -24.4
COCCn1c(SCC(=O)NCC2CCCO2)nc2c(c1=O)SCC2 (stereo not drawn) | 15.6
O=C(NCCS(=O)(=O)N1CCN(c2ccccc2F)CC1)c1ccc(Br)cc1 | 4.45
CN1CCN(C(=O)C2CCN(c3ncnc4c3nc3n4CCCCC3)CC2)CC1 | 17.7
CCOC(=O)CSc1ccc(S(=O)(=O)N(C)C2CCCCC2)cc1[N+](=O)[O-] | 5.43
CC(C(=O)N1CCN(C(=O)c2ccco2)CC1)N1C(=O)NC2(CCCCC2C)C1=O (stereo not drawn) | 6.81
CCCCC(CC)C(=O)Nc1cc([N+](=O)[O-])ccc1F (stereo not drawn) | -15.8
O=c1[nH]c(CN2CCNCC2)nc2ccccc12 | -23.4
CN(C)C=O.O=C(CNC(=O)C12CC3CC(CC(C3)C1)C2)N1CCN(S(=O)(=O)c2cccs2)CC1 | 23.3
COc1ccc(N(CC(=O)N/N=C(\C)c2cccs2)S(=O)(=O)c2ccccc2)cc1Cl | -14.6
COc1ccc(-c2[nH]ncc2CN2CCCC(C(=O)c3cccc(OC)c3)C2)cc1 (stereo not drawn) | -67.3
CC(C)c1ccc(S(=O)(=O)/N=C2\C=C(NS(=O)(=O)c3ccccc3)C(=O)c3ccccc32)cc1 | -29.5
CCN1CCN(C(=O)CCNC(=O)Cn2cnc3ccccc3c2=O)CC1 | 11.9
CCOC(=O)Cc1csc(NC(=O)CSc2nc(C)cc(=O)[nH]2)n1.Cl | -5.94
Cc1cc(OCc2nc(-c3ccncc3)no2)cc(C)c1Cl | 10.3
CC1CCCCN1S(=O)(=O)c1ccc(S(=O)(=O)NCCc2ccncc2)cc1 (stereo not drawn) | -19.1
CN(CC(=O)Nc1ccccc1C(F)(F)F)C(=O)CSc1nc(N)cc(N)n1 | 16
